{"source": "the supplement of paper PMC4604168 (melanoma cell lines)", "test_in_all_cases": "cell count relative to DMSO control; melanoma cells; higher = more viable cells", "settings_in_all_cases": "library dose: standard library concentration; 72 h", "key": {"G361": {"test_system": "G361"}, "IPC-298": {"test_system": "IPC-298"}, "IST-MEL1": {"test_system": "IST-MEL1"}, "LB2518-MEL": {"test_system": "LB2518-MEL"}, "LOXIMVI": {"test_system": "LOXIMVI"}, "MEL-HO": {"test_system": "MEL-HO"}, "MZ2-MEL": {"test_system": "MZ2-MEL"}, "MeWo": {"test_system": "MeWo"}, "RPMI7951": {"test_system": "RPMI7951"}, "RVH-421": {"test_system": "RVH-421"}}, "note": "The list shows a part of the results. Many values rest on one well or one pass, so single values are uncertain.", "data": [{"compound": "CC1(C)CCC(c2ccc(Cl)cc2)=C(CN2CCN(c3ccc(C(=O)NS(=O)(=O)c4ccc(N[C@H](CCN5CCOCC5)CSc5ccccc5)c(S(=O)(=O)C(F)(F)F)c4)cc3)CC2)C1", "note": "+ COCC[n+]1c2c(n(Cc3cnccn3)c1C)C(=O)c1ccccc1C2=O [YM155] (first compound 2 µM, partner dose 0.002 µM);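 note: cells treated in 1,536-well plates, then fixed and DAPI-stained, with nuclei counted from automated high-throughput microscope images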", "values": [{"measurement": "cell count", "setting": "G361", "result": 47.8, "unit": "%"}, {"measurement": "cell count", "setting": "IPC-298", "result": 32.9, "unit": "%"}, {"measurement": "cell count", "setting": "IST-MEL1", "result": 23, "unit": "%"}, {"measurement": "cell count", "setting": "LB2518-MEL", "result": 10.4, "unit": "%"}, {"measurement": "cell count", "setting": "LOXIMVI", "result": 16, "unit": "%"}, {"measurement": "cell count", "setting": "MEL-HO", "result": 39.1, "unit": "%"}, {"measurement": "cell count", "setting": "MZ2-MEL", "result": 4.08, "unit": "%"}, {"measurement": "cell count", "setting": "MeWo", "result": 41.4, "unit": "%"}, {"measurement": "cell count", "setting": "RPMI7951", "result": 14.5, "unit": "%"}, {"measurement": "cell count", "setting": "RVH-421", "result": 74.7, "unit": "%"}]}, {"compound": "O=C(/C=C/c1cccnc1)NCCCCC1CCN(C(=O)c2ccccc2)CC1", "note": "+ CCCCCCCCc1ccc(CCC(N)(CO)CO)cc1 [fingolimod] (first compound 0.05 µM, partner dose 10 µM)", "values": [{"measurement": "cell count", "setting": "G361", "result": 0.618, "unit": "%"}, {"measurement": "cell count", "setting": "IPC-298", "result": 0.924, "unit": "%"}, {"measurement": "cell count", "setting": "IST-MEL1", "result": 5.71, "unit": "%"}, {"measurement": "cell count", "setting": "LB2518-MEL", "result": 0.202, "unit": "%"}, {"measurement": "cell count", "setting": "LOXIMVI", "result": 3, "unit": "%"}, {"measurement": "cell count", "setting": "MEL-HO", "result": 0.774, "unit": "%"}, {"measurement": "cell count", "setting": "MZ2-MEL", "result": 0.444, "unit": "%"}, {"measurement": "cell count", "setting": "MeWo", "result": 5.3, "unit": "%"}, {"measurement": "cell count", "setting": "RPMI7951", "result": 0.975, "unit": "%"}, {"measurement": "cell count", "setting": "RVH-421", "result": 3.19, "unit": "%"}]}, {"compound": "Cc1ccc(Nc2nccc(N(C)c3ccc4c(C)n(C)nc4c3)n2)cc1S(N)(=O)=O", "note": "[Pazopanib] + CC(=O)O[C@@]12CO[C@@H]1C[C@H](O)[C@@]1(C)C(=O)[C@H](O)C3=C(C)[C@@H](OC(=O)[C@H](O)[C@@H](NC(=O)OC(C)(C)C)c4ccccc4)C[C@@](O)([C@@H](OC(=O)c4ccccc4)[C@H]21)C3(C)C [Docetaxel] (first compound 2 µM, partner dose 0.0005 µM)", "values": [{"measurement": "cell count", "setting": "G361", "result": 11.6, "unit": "%"}, {"measurement": "cell count", "setting": "IPC-298", "result": 33.7, "unit": "%"}, {"measurement": "cell count", "setting": "IST-MEL1", "result": 40.3, "unit": "%"}, {"measurement": "cell count", "setting": "LB2518-MEL", "result": 30.4, "unit": "%"}, {"measurement": "cell count", "setting": "LOXIMVI", "result": 72.4, "unit": "%"}, {"measurement": "cell count", "setting": "MEL-HO", "result": 42.5, "unit": "%"}, {"measurement": "cell count", "setting": "MZ2-MEL", "result": 44.4, "unit": "%"}, {"measurement": "cell count", "setting": "MeWo", "result": 29, "unit": "%"}, {"measurement": "cell count", "setting": "RPMI7951", "result": 17.1, "unit": "%"}, {"measurement": "cell count", "setting": "RVH-421", "result": 48.5, "unit": "%"}]}, {"compound": "CC1(C)CCC(c2ccc(Cl)cc2)=C(CN2CCN(c3ccc(C(=O)NS(=O)(=O)c4ccc(N[C@H](CCN5CCOCC5)CSc5ccccc5)c(S(=O)(=O)C(F)(F)F)c4)cc3)CC2)C1", "note": "+ COc1ccc(-c2ccc3c(N4CCOCC4)nc(N4C[C@@H](C)O[C@@H](C)C4)nc3n2)cc1CO [KU0063794] (first compound 2 µM, partner dose 0.1 µM)", "values": [{"measurement": "cell count", "setting": "G361", "result": 71.5, "unit": "%"}, {"measurement": "cell count", "setting": "IPC-298", "result": 64.7, "unit": "%"}, {"measurement": "cell count", "setting": "IST-MEL1", "result": 69.4, "unit": "%"}, {"measurement": "cell count", "setting": "LB2518-MEL", "result": 71.4, "unit": "%"}, {"measurement": "cell count", "setting": "LOXIMVI", "result": 32.3, "unit": "%"}, {"measurement": "cell count", "setting": "MEL-HO", "result": 47.1, "unit": "%"}, {"measurement": "cell count", "setting": "MZ2-MEL", "result": 75.2, "unit": "%"}, {"measurement": "cell count", "setting": "MeWo", "result": 68.7, "unit": "%"}, {"measurement": "cell count", "setting": "RPMI7951", "result": 32.3, "unit": "%"}, {"measurement": "cell count", "setting": "RVH-421", "result": 53.4, "unit": "%"}]}, {"compound": "Cc1ccc(Nc2nccc(N(C)c3ccc4c(C)n(C)nc4c3)n2)cc1S(N)(=O)=O", "note": "[Pazopanib] + COc1cc2ncnc(Nc3ccc(Oc4ccccc4)cc3)c2cc1OC [SrcI1] (first compound 2 µM, partner dose 10 µM)", "values": [{"measurement": "cell count", "setting": "G361", "result": 21, "unit": "%"}, {"measurement": "cell count", "setting": "IPC-298", "result": 65.7, "unit": "%"}, {"measurement": "cell count", "setting": "IST-MEL1", "result": 81, "unit": "%"}, {"measurement": "cell count", "setting": "LB2518-MEL", "result": 106, "unit": "%"}, {"measurement": "cell count", "setting": "LOXIMVI", "result": 49.7, "unit": "%"}, {"measurement": "cell count", "setting": "MEL-HO", "result": 76.1, "unit": "%"}, {"measurement": "cell count", "setting": "MZ2-MEL", "result": 80.7, "unit": "%"}, {"measurement": "cell count", "setting": "MeWo", "result": 69.5, "unit": "%"}, {"measurement": "cell count", "setting": "RPMI7951", "result": 21.9, "unit": "%"}, {"measurement": "cell count", "setting": "RVH-421", "result": 112, "unit": "%"}]}, {"compound": "CC1(C)CCC(c2ccc(Cl)cc2)=C(CN2CCN(c3ccc(C(=O)NS(=O)(=O)c4ccc(N[C@H](CCN5CCOCC5)CSc5ccccc5)c(S(=O)(=O)C(F)(F)F)c4)cc3)CC2)C1", "note": "+ Cc1ccc(NC(=O)c2cccc(N(C)C)c2)cc1NC(=O)c1ccc(O)cc1 [ZM336372] (first compound 2 µM, partner dose 10 µM)", "values": [{"measurement": "cell count", "setting": "G361", "result": 66.6, "unit": "%"}, {"measurement": "cell count", "setting": "IPC-298", "result": 107, "unit": "%"}, {"measurement": "cell count", "setting": "IST-MEL1", "result": 67.1, "unit": "%"}, {"measurement": "cell count", "setting": "LB2518-MEL", "result": 66.8, "unit": "%"}, {"measurement": "cell count", "setting": "LOXIMVI", "result": 76.2, "unit": "%"}, {"measurement": "cell count", "setting": "MEL-HO", "result": 61.7, "unit": "%"}, {"measurement": "cell count", "setting": "MZ2-MEL", "result": 87.1, "unit": "%"}, {"measurement": "cell count", "setting": "MeWo", "result": 76.1, "unit": "%"}, {"measurement": "cell count", "setting": "RPMI7951", "result": 51.6, "unit": "%"}, {"measurement": "cell count", "setting": "RVH-421", "result": 45, "unit": "%"}]}, {"compound": "O=C(/C=C/c1cccnc1)NCCCCC1CCN(C(=O)c2ccccc2)CC1", "note": "+ N#Cc1c(O)c2c(-c3ccc(-c4ccccc4O)cc3)csc2[nH]c1=O [A769662] (first compound 0.05 µM, partner dose 10 µM)", "values": [{"measurement": "cell count", "setting": "G361", "result": 3.39, "unit": "%"}, {"measurement": "cell count", "setting": "IPC-298", "result": 27.2, "unit": "%"}, {"measurement": "cell count", "setting": "IST-MEL1", "result": 62.8, "unit": "%"}, {"measurement": "cell count", "setting": "LB2518-MEL", "result": 67.2, "unit": "%"}, {"measurement": "cell count", "setting": "LOXIMVI", "result": 65.1, "unit": "%"}, {"measurement": "cell count", "setting": "MEL-HO", "result": 48, "unit": "%"}, {"measurement": "cell count", "setting": "MZ2-MEL", "result": 28.7, "unit": "%"}, {"measurement": "cell count", "setting": "MeWo", "result": 102, "unit": "%"}, {"measurement": "cell count", "setting": "RPMI7951", "result": 95, "unit": "%"}, {"measurement": "cell count", "setting": "RVH-421", "result": 37.7, "unit": "%"}]}, {"compound": "CC1(C)CCC(c2ccc(Cl)cc2)=C(CN2CCN(c3ccc(C(=O)NS(=O)(=O)c4ccc(N[C@H](CCN5CCOCC5)CSc5ccccc5)c(S(=O)(=O)C(F)(F)F)c4)cc3)CC2)C1", "note": "+ O=S(=O)(c1ccccc1)N(CC(F)(F)F)c1ccc(C(O)(C(F)(F)F)C(F)(F)F)cc1 [T0901317] (first compound 2 µM, partner dose 7 µM)", "values": [{"measurement": "cell count", "setting": "G361", "result": 37.1, "unit": "%"}, {"measurement": "cell count", "setting": "IPC-298", "result": 83.9, "unit": "%"}, {"measurement": "cell count", "setting": "IST-MEL1", "result": 66.7, "unit": "%"}, {"measurement": "cell count", "setting": "LB2518-MEL", "result": 75.7, "unit": "%"}, {"measurement": "cell count", "setting": "LOXIMVI", "result": 54, "unit": "%"}, {"measurement": "cell count", "setting": "MEL-HO", "result": 49.3, "unit": "%"}, {"measurement": "cell count", "setting": "MZ2-MEL", "result": 92.4, "unit": "%"}, {"measurement": "cell count", "setting": "MeWo", "result": 69.3, "unit": "%"}, {"measurement": "cell count", "setting": "RPMI7951", "result": 22.3, "unit": "%"}, {"measurement": "cell count", "setting": "RVH-421", "result": 42.4, "unit": "%"}]}, {"compound": "O=C(/C=C/c1cccnc1)NCCCCC1CCN(C(=O)c2ccccc2)CC1", "note": "+ OCc1c[nH]c2ccccc12 [Indole-3-carbinol] (first compound 0.05 µM, partner dose 4 µM)", "values": [{"measurement": "cell count", "setting": "G361", "result": 3.26, "unit": "%"}, {"measurement": "cell count", "setting": "IPC-298", "result": 22, "unit": "%"}, {"measurement": "cell count", "setting": "IST-MEL1", "result": 58.9, "unit": "%"}, {"measurement": "cell count", "setting": "LB2518-MEL", "result": 69.5, "unit": "%"}, {"measurement": "cell count", "setting": "LOXIMVI", "result": 78.3, "unit": "%"}, {"measurement": "cell count", "setting": "MEL-HO", "result": 51.6, "unit": "%"}, {"measurement": "cell count", "setting": "MZ2-MEL", "result": 35.1, "unit": "%"}, {"measurement": "cell count", "setting": "MeWo", "result": 113, "unit": "%"}, {"measurement": "cell count", "setting": "RPMI7951", "result": 91, "unit": "%"}, {"measurement": "cell count", "setting": "RVH-421", "result": 28.3, "unit": "%"}]}]}
